The chains are these.
B1: OR4K15 (parent)
chain: GUUAACGGUCAUAGGCCAUGGAAACUAGGAGCACCAUUUCGCUGCCAGUGAAGAAAUGAACAAAGAAAAUCUGGGCCAGGCAGGCAUCAAAAGAAAUAGUCUUGCGCUCAACCAGAAAGUCUGUAAUCAUUUUAAGGGUA

Read counts are not given, so values of variants with three or more changes are uncertain.

In this data set the parent is B1. Briefly: self-cleavage, relative activity (ratio to wild type); higher = more cleavage; in vitro, sequencing; the parent is a self-cleaving ribozyme.
In the case of GUUAACGGUCAUAGGCCAUGGAAACUAGGAGCACCAUUUCGCUGCCAGUGAAGAAGUGAACAAGGAAAAUCUGGGCCUGGCAGGCAUCAAAAGAAAUAGUCUUGCGCUCAACCAGAAAGUCUGUAAUCAUUUUAAGGGUA, the self-cleavage stood at 0.12. The result for GUUAACGGUCAUAGGCCAUGGAAACUAGGAGCACCAUUUCGCUGCCAGUGAAGAAGUGAACAAAGAAAAUCUGGGCCAGGCAGGCAUCAAAAGAGAUAGUCUUGCGCUCAACCAGAAAGUCUGUAAUCACUUUAAGGGUA reads 1.56; that for GUUAACGGUCAUAGGCCAUGGAAACUAGGAGCACCAUUUCGCUGCCAGUGAAGAAGUGAACAAAGAAGAUCUGGGCCAGGCAGGCAUCAAAAGAAAUAGUCUCGCGCUCAACCAGAAAGUCUGUAAUCACUUUAAGGGUA, 1.41; that for GUUAACGGUCAUAGGCCAUGGAAACUAGGAGCACCAUUUCGCUGCCAGUGAAGAAGUGAGCAAAGAAAAUCUGGGCCAGGCAGGCAUCAAAAGAAAUAGUCUUGCGCUCAACCAGAAAGUCUGUAAACAUUUUAAGGGUA, 1.26. The same measure for GUUAACGGUCAUAGGCCAUGGAAACUAGGAGCACCAUUUCGCUGCCAGUGAAGAAGUGAACAAAGAAAAUCUGGGCCAGGCAGGCAUCAAAAGAAGUAGUCUUGCGCUCAGCCAGAAAGUCUGUAAUCAUUUUAAGGGUG: 0.03; for GUUAACGGUCAUAGGCCAUGGAAACUAGGAGCACCAUUUCGCUGCCAGUGAAGAAGUGAACAAAGAAAAUCUGGGCCAGGCAGGCAUCAAAAGAGAUAGUCUUGCGCUCAACCAGAAAGUCCGUAAUCAUUUUAAGGGUA: 1.43. The same measure for GUUAACGGUCAUAGGCCAUGGAAACUAGGAGCACCAUUUCGCUGCCAGUGAAGAAGUGAACAAGGGAAAUCUGGGCCAGGCAGGCAUCAAAAGAAAUAGUCUUGCGCUCAACCAGAAAGUCUGUAAUCAUUUUAAGGGUA: 0.67. GUUAACGGUCAUAGGCCAUGGAAACUAGGAGCACCAUUUCGCUGCCAGUGAAGAAGUGAACAAAGAAAAUCUGGGCCAGGCAGGCAUCAAAAGGAAUAGUCUCGCGCUCAACCAGAAAGUCUGUAAUCAUUUUAAGGGUA: the self-cleavage stood at 1.19.

On to GUUAACGGUCAUAGGCCAUGGAAACUAGGAGCACCAUUUCGCUGCCAGUGAAGAAGUGAACAAAGAAAAUCUGGGCCAGGCAGGCUUCAAAAGAAAUAGUCUUGCGCUCAACCAGAAAGUCUGCAAUCAUUUUAAGGGUA, for which the self-cleavage was 0.76. The same measure for GUUAACGGUCAUAGGCCAUGGAAACUAGGAGCACCAUUUCGCUGCCAGUGAAGAAGUGAACAAAGAGAAUCUGGGCCAGGCAGGCAUCAAAAGAAAUAGUCUCGCGCUCAACCAGAAGGUCUGUAAUCAUUUUAAAGGUA: 0.39; for GUUAACGGUCAUAGGCCAUGGAAACUAGGAGCACCAUUUCGCUGCCAGUGAAGAAGUGAGCAAAGAAAAUCUGGGCCAGGCAGGCAUCAGAAGAAAUGGUCUUGCGCUCAUCCAGAAAGUCCGUAAUCAUUUUAAGGGUA: 0.01; for GUUAACGGUCAUAGGCCAUGGAAACUAGGAGCACCAUUUCGCUGCCAGUGAAGAAGUGAACAGAGAAAAUCUGGGCCAGGCAGGCAUCAAAAGGAAUAGUCUUGCGCUCAACCAGAAAGCCUGUAAUCAUCUUAAGGGUA: 1.24. The same measure for GUUAACGGUCAUAGGCCAUGGAAACUAGGAGCACCAUUUCGCUGCCAGUGAAGAAGUGAACAAAGAAAAUCUGGGCCAGGCAGGCAUCAAAGGAAAUAGUCUUGCGCUCAACCAGAAAGUCUGUUAUCAUUUUAAGGGUA: 1.13; for GUUAACGGUCAUAGGCCAUGGAAACUAGGAGCACCAUUUCGCUGCCAGUGAAGAAGUGAACAAAGGAAAUCUGGGCCAGGCAGGCAUCAAAAGAAAUAGUCUUGCGCUCAACCAGAAAGUCUGUAAUCACUUUAAGGGUA: 1.91; for GUUAACGGUCAUAGGCCAUGGAAACUAGGAGCACCAUUUCGCUGCCAGUGAAGAAGUGAACAAAGAGAAUCAGGGCCAGGCAGGCAUCAAAAGAAAUAGUCUCGCGCUCAACAAGAAAGUCUGUAAUCAUUUUAAGGGUA: 0.08.

Regarding GUUAACGGUCAUAGGCCAUGGAAACUAGGAGCACCAUUUCGCUGCCAGUGAAGAAGUGAACAAAGAAAAUCUGGGCCAGGCUGGCAUCAAAAGAAAUAGUCUUGCACUCAACCAGAAAGUCUGUAAUCAUUUUAAGGGUA, the self-cleavage stood at 0. The result for GUUAACGGUCAUAGGCCAUGGAAACUAGGAGCACCAUUUCGCUGCCAGUGAAGAAGUGAACAAAGAAAAUCUGGGCCAGGCAGGCAUCAAAAGAAAUAGUCUUGCGCUCAGCCAGAAAGUCUGUAAUCAUCUUAAGGGUA reads 0.01. As for GUUAACGGUCAUAGGCCAUGGAAACUAGGAGCACCAUUUCGCUGCCAGUGAAGAAGUGAACAAAGAAAAUCUGGGCCUGGCAGGCAUCGAAGGAAAUAGUCUUGCGCUCAACCAGAAAGUCCGUAAUCAUUUUAAGGGUA, the self-cleavage stood at 0.04.

Regarding GUUAACGGUCAUAGGCCAUGGAAACUAGGAGCACCAUUUCGCUGCCAGUGAAGAAGUGAACAAAGAAAAUCUGGGCCAGGCAGGCAUCAAAAGAAAUAAUCUUGCGCUCAACCAGAAAGCCUGUAAUCAUUUUAAGGGCA, the self-cleavage came out at 0.

In the case of GUUAACGGUCAUAGGCCAUGGAAACUAGGAGCACCAUUUCGCUGCCAGUGAAGAAGUGAACAAAGAAAAUCUGGGCCAGGCAGGCAUCGGAGGAAAUAGCCUUGCGCUCAACCAGAAAGUCUGUAAUCAUUUUAAGGGUA, the self-cleavage came out at 1.36. The same measure for GUUAACGGUCAUAGGCCAUGGAAACUAGGAGCACCAUUUCGCUGCCAGUGAAGAAGAGAACAGAGAAAAUCUGGGCCAGGCAGGCAUCAAAAGAAAUAGUCUUGCGCUCAACCAGAAAGUCUGUAAUCAUUUUAAGGGUA: 0.87. In the case of GUUAACGGUCAUAGGCCAUGGAAACUAGGAGCACCAUUUCGCUGCCAGUGAAGAAGUGAACAAAGAAAAUCUGGGCCAGGCUGGCAUCAAAAGGAAUAGUCUUGCGCUCAACCAGAAAGUCUGUAAUCACUUUAGGGGUA, the self-cleavage was determined as 0.1. In the case of GUUAACGGUCAUAGGCCAUGGAAACUAGGAGCACCAUUUCGCUGCCAGUGAAGAAGUGAACAAAGAAAAUCUGGGCCAGGCAGGCAUCAAAAGAAAUGGUCUUGUGCUCAACCAGAAAGUCUGUAUUCAUUUUAAGGGUA, the self-cleavage amounted to 0.03. Turning to GUUAACGGUCAUAGGCCAUGGAAACUAGGAGCACCAUUUCGCUGCCAGUGAAGAAGUGAACAAAGAAAAUCUGGGCCAGGCAGGCAUCAAAAGAAGUAGUCUUGCGCUCAACCAGAAAGUCUGUAAUCAUUUUAAGGGUG, the self-cleavage came to 1.79. For GUUAACGGUCAUAGGCCAUGGAAACUAGGAGCACCAUUUCGCUGCCAGUGAAGAAGUGAACAAAGAAAAUCUGGGCCAGGCAGGCGUCAAAAGAAAUAGUCUUGCGCUCAACCAGAAAGUCUGUAAUCAUUUUAAGGGUG, the self-cleavage is 1.16. The result for GUUAACGGUCAUAGGCCAUGGAAACUAGGAGCACCAUUUCGCUGCCAGUGAAGAAGUGAACAAAGAAAAUCUGGGCCUGGCAGGCACCAAAAGAAAUAGUCUUGCGCUCAACCAGAAGGUCUGUAAUCAUUUUAAGGGUA reads 0.16; that for GUUAACGGUCAUAGGCCAUGGAAACUAGGAGCACCAUUUCGCUGCCAGUGAAGAAGUGAGCAAAGAAAAUCUGGGCCAGGCAGGCAUCAAAAGAGAUAGUCUUGCGCUCAACCAGAAAGUCUGUAAUCAUUUUGAGGGUA, 1.63; that for GUUAACGGUCAUAGGCCAUGGAAACUAGGAGCACCAUUUCGCUGCCAGUGAAGAAGUGAACAAAGAAGAUCUGGGCCAGGCAGGCAGCGAGAGAGAUAGUCUUGCGCUCAAACAGAAAGUCUGUAAUCAUUUUAAGGGUA, 0.03. For the variant GUUAACGGUCAUAGGCCAUGGAAACUAGGAGCACCAUUUCGCUGCCAGUGAAGAAGUGAACAAAGAAAAUCUGGGCCAGGCAGGCAUCAGGAGAAAUAGUCUUGCGCUCAACCAGAAAGUCUGUAAUCAUCUUAAGGGUA, the self-cleavage was 1.76.

GUUAACGGUCAUAGGCCAUGGAAACUAGGAGCACCAUUUCGCUGCCAGUGAAGAAGUGAACAAAGAAGAUCUGGGCCAGGCAGGCAUCAAAAGAAAUAGUCUUGCGCUCAACCUGAAAGUCUGUAAUCAUUUUAAGGGUA: the self-cleavage was found to be 0.05. Consider GUUAACGGUCAUAGGCCAUGGAAACUAGGAGCACCAUUUCGCUGCCAGUGAAGAAGUGAACAAAGAAAAUCUGGGCCAGGCAGGCAUCAAAAGAAAUAAUCUUGCGCCCAACCAGAAAGUCUGUAAUCAUUUUAGGGGUA, for which the self-cleavage is 0.02. As to GUUAACGGUCAUAGGCCAUGGAAACUAGGAGCACCAUUUCGCUGCCAGUGAAGAAGUGAACAGAGAAAAUCUGGGCCAGGCUGGCAUCAAAAGAAAUAGUCUUGCGCUCAACCAGAAAGUCUGUAAUCAUUUUAAGGGUA, the self-cleavage is 0.28.

For the variant GUUAACGGUCAUAGGCCAUGGAAACUAGGAGCACCAUUUCGCUGCCAGUGAAGAAGUGACCAAAGAAAAUCUGGGCCAGGCAGGCAUCAAAGGAAAUAGUCUUGCGCUCAACCAGAAAGUCUGUAAUCAUUUUAAGGGUA, the self-cleavage was 0.67. As to GUUAACGGUCAUAGGCCAUGGAAACUAGGAGCACCAUUUCGCUGCCAGUGAAGAAGUGAACAGAGAAAAUCUGGGCCAGGCAGGCAUCAAAAGAAAUAGUCUUGCGCUCAACCAGAGAGUCUGUAAUCAUUUUAAGGGUA, the self-cleavage is 1.24. The same measure for GUUAACGGUCAUAGGCCAUGGAAACUAGGAGCACCAUUUCGCUGCCAGUGAAGAAGUGAACAAAGAAAAUCUGGGCCAGGCAGGCAUCAAAAGAAAUAGUCUUGCGCUCAACCAGAAGGUCUGUAAUUAUUUUAAGGGUA: 0.41. The result for GUUAACGGUCAUAGGCCAUGGAAACUAGGAGCACCAUUUCGCUGCCAGUGAAGAAGUGAACUAAGACAAUCUGGGCCAGGCAGGCAUCAAAAGAAAUAGUCUUGCGCUCAACCAGAAAGCCUGUAAUCAUUUUAAGGGUA reads 0.92; that for GUUAACGGUCAUAGGCCAUGGAAACUAGGAGCACCAUUUCGCUGCCAGUGAAGAAGUGAACAAAGGAAAUCUGGGCCGGGCAGGCACCAAAAGAAAUAGUCUUGCGCUCAACCAGAACGUCUGUAAUCAUUUUAAGGGUA, 0.11; that for GUUAACGGUCAUAGGCCAUGGAAACUAGGAGCACCAUUUCGCUGCCAGUGAAGAAGUGAACAAAGAGAAUCUGGGCCAGGCAGGCGUCAAAAGAAAUAGUCUUGCGCUCAACCAGAAAGUCCGUAAUCAUUUUAAGGGUA, 0.27.

As to GUUAACGGUCAUAGGCCAUGGAAACUAGGAGCACCAUUUCGCUGCCAGUGAAGAAGUGAACAAAGGAAAUCUGGGCCAGGCAGGCAUCAAAAGAAAUAGUCUUGCGCUCGACCAGAAAGUCUGUGAUCAUUUUAAGGGUA, the self-cleavage came out at 0.03. For GUUAACGGUCAUAGGCCAUGGAAACUAGGAGCACCAUUUCGCUGCCAGUGAAGAAGUGAACAAAGAAAAUCUGGGCCAGGCAGGCAUCAUAAGAAAUAGUCUUGCGCUCAGCCAGAAAGUCUGUAAUCAUUUUAAGGGUA, the self-cleavage was 0. Turning to GUUAACGGUCAUAGGCCAUGGAAACUAGGAGCACCAUUUCGCUGCCAGUGAAGAAGUGAACAAAGAAAAUCUGGGCCAGGCAGGCAUCAAAAGAAGUAGUCUUGCGCUCAACCAGAAGGUCUGUAAUCAUUUUAAGGGUA, the self-cleavage stood at 1.01.

Source of the values: the RNAGym collection of RNA variant scans (doi:10.7554/elife.90254).
